Drawing on publication PMC12820563, this text covers binding signal (RPM ratio (pull-down/input)) for 63 sequences.

Some of the results follow. The list includes weakly bound sequences.

The assay concerns the target T1, MBP-FoxP3dN (UniProt Q99JB6).
T1 sequence: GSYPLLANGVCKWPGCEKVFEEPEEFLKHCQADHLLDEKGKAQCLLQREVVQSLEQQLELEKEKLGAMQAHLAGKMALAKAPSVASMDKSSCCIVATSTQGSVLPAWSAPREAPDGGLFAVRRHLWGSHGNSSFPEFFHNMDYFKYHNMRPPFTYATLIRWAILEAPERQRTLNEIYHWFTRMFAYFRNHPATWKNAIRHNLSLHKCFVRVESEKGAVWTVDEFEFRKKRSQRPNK
The experiment in a line: PD-seq (MBP pull-down with sequencing). To be noted: 20 mM Tris-HCl pH 7.5, 100 mM NaCl, 1.5 mM MgCl2, 0.4 uM protein, 0.1 uM dsDNA library, 30 min, room temperature, amylose pull-down; high values mean tight binding; double strand, one strand shown.
“GATGATTGTTCTCCCAGCTGATGAATTTAAAGGCTCGAGTAAACAAATTTTCCTAATCTTTCTGTTCAAGCGCCATCTAC”: the binding signal (RPM ratio (pull-down/input)) was found to be 0.392.
Next, “GATGATTGTTCTCCCAGCTGATGAATTCAGTCGATCGAGTAAACAAATTTTCCTAATCTTTCTGTTCAAGCGCCATCTAC”: 0.304.
To “GATGATTGTTCTCCCAGCTGATGAATTGCTATATTCGAGTAAACAAATTTTCCTAATCTTTCTGTTCAAGCGCCATCTAC” belongs 0.892.
Next, “GATGATTGTTCTCCCAGCTGATGAATTCCTGAGGTCGAGTAAACAAATTTTCCTAATCTTTCTGTTCAAGCGCCATCTAC”: 0.165; “GATGATTGTTCTCCCAGCTGATGAATTCGCGATATCGAGTAAACAAATTTTCCTAATCTTTCTGTTCAAGCGCCATCTAC”: 0.586; “GATGATTGTTCTCCCAGCTGATGAATTAAGTAGATCGAGTAAACAAATTTTCCTAATCTTTCTGTTCAAGCGCCATCTAC”: 0.431.
Take “GATGATTGTTCTCCCAGCTGATGAATTTTCAGACTCGAGTAAACAAATTTTCCTAATCTTTCTGTTCAAGCGCCATCTAC”: the binding signal (RPM ratio (pull-down/input)) amounted to 0.227.
Next, “GATGATTGTTCTCCCAGCTGATGAATTCGGAGAGTCGAGTAAACAAATTTTCCTAATCTTTCTGTTCAAGCGCCATCTAC”: 0.24; “GATGATTGTTCTCCCAGCTGATGAATTCCCGCTTTCGAGTAAACAAATTTTCCTAATCTTTCTGTTCAAGCGCCATCTAC”: 1.11.
Next, “GATGATTGTTCTCCCAGCTGATGAATTAAAGTGATCGAGTAAACAAATTTTCCTAATCTTTCTGTTCAAGCGCCATCTAC”: 0.472; “GATGATTGTTCTCCCAGCTGATGAATTACCAGCGTCGAGTAAACAAATTTTCCTAATCTTTCTGTTCAAGCGCCATCTAC”: 0.436; “GATGATTGTTCTCCCAGCTGATGAATTTCCTGCATCGAGTAAACAAATTTTCCTAATCTTTCTGTTCAAGCGCCATCTAC”: 0.719.
To “GATGATTGTTCTCCCAGCTGATGAATTTTGATAGTCGAGTAAACAAATTTTCCTAATCTTTCTGTTCAAGCGCCATCTAC” belongs 1.64; to “GATGATTGTTCTCCCAGCTGATGAATTATTCTAATCGAGTAAACAAATTTTCCTAATCTTTCTGTTCAAGCGCCATCTAC”, 0.362; to “GATGATTGTTCTCCCAGCTGATGAATTGTACTGATCGAGTAAACAAATTTTCCTAATCTTTCTGTTCAAGCGCCATCTAC”, 0.491.
For the sequence “GATGATTGTTCTCCCAGCTGATGAATTTACAGTTTCGAGTAAACAAATTTTCCTAATCTTTCTGTTCAAGCGCCATCTAC”, the binding signal (RPM ratio (pull-down/input)) was 0.665.
As to “GATGATTGTTCTCCCAGCTGATGAATTAGCGAGCTCGAGTAAACAAATTTTCCTAATCTTTCTGTTCAAGCGCCATCTAC”, the binding signal (RPM ratio (pull-down/input)) came to 0.313.
To “GATGATTGTTCTCCCAGCTGATGAATTACTTAATTCGAGTAAACAAATTTTCCTAATCTTTCTGTTCAAGCGCCATCTAC” belongs 0.322.
To “GATGATTGTTCTCCCAGCTGATGAATTTGAGCAATCGAGTAAACAAATTTTCCTAATCTTTCTGTTCAAGCGCCATCTAC” belongs 2.15; to “GATGATTGTTCTCCCAGCTGATGAATTGGCCGAGTCGAGTAAACAAATTTTCCTAATCTTTCTGTTCAAGCGCCATCTAC”, 0.215; to “GATGATTGTTCTCCCAGCTGATGAATTGGACTGTTCGAGTAAACAAATTTTCCTAATCTTTCTGTTCAAGCGCCATCTAC”, 0.423.
“GATGATTGTTCTCCCAGCTGATGAATTAGACGAATCGAGTAAACAAATTTTCCTAATCTTTCTGTTCAAGCGCCATCTAC”: the binding signal (RPM ratio (pull-down/input)) came out at 0.249.
To “GATGATTGTTCTCCCAGCTGATGAATTTATGTTATCGAGTAAACAAATTTTCCTAATCTTTCTGTTCAAGCGCCATCTAC” belongs 3.24; to “GATGATTGTTCTCCCAGCTGATGAATTGCTCTAATCGAGTAAACAAATTTTCCTAATCTTTCTGTTCAAGCGCCATCTAC”, 0.438; to “GATGATTGTTCTCCCAGCTGATGAATTAGTGTCATCGAGTAAACAAATTTTCCTAATCTTTCTGTTCAAGCGCCATCTAC”, 1.75.
To “GATGATTGTTCTCCCAGCTGATGAATTGCTATCGTCGAGTAAACAAATTTTCCTAATCTTTCTGTTCAAGCGCCATCTAC” belongs 0.891.
Next, “GATGATTGTTCTCCCAGCTGATGAATTAATTTGATCGAGTAAACAAATTTTCCTAATCTTTCTGTTCAAGCGCCATCTAC”: 0.653; “GATGATTGTTCTCCCAGCTGATGAATTACGTGTTTCGAGTAAACAAATTTTCCTAATCTTTCTGTTCAAGCGCCATCTAC”: 1.3; “GATGATTGTTCTCCCAGCTGATGAATTAATCGCATCGAGTAAACAAATTTTCCTAATCTTTCTGTTCAAGCGCCATCTAC”: 1.04.
On to “GATGATTGTTCTCCCAGCTGATGAATTCGTATCTTCGAGTAAACAAATTTTCCTAATCTTTCTGTTCAAGCGCCATCTAC”, for which the binding signal (RPM ratio (pull-down/input)) is 1.59.
“GATGATTGTTCTCCCAGCTGATGAATTGGTTCGCTCGAGTAAACAAATTTTCCTAATCTTTCTGTTCAAGCGCCATCTAC”: the binding signal (RPM ratio (pull-down/input)) amounted to 0.308.
For “GATGATTGTTCTCCCAGCTGATGAATTATCTGAATCGAGTAAACAAATTTTCCTAATCTTTCTGTTCAAGCGCCATCTAC”, the binding signal (RPM ratio (pull-down/input)) stood at 0.229.
Next, “GATGATTGTTCTCCCAGCTGATGAATTGTTCATTTCGAGTAAACAAATTTTCCTAATCTTTCTGTTCAAGCGCCATCTAC”: 0.475; “GATGATTGTTCTCCCAGCTGATGAATTAAGTAAATCGAGTAAACAAATTTTCCTAATCTTTCTGTTCAAGCGCCATCTAC”: 0.357; “GATGATTGTTCTCCCAGCTGATGAATTTCACAATTCGAGTAAACAAATTTTCCTAATCTTTCTGTTCAAGCGCCATCTAC”: 0.348.
Next, “GATGATTGTTCTCCCAGCTGATGAATTTAGAGGTTCGAGTAAACAAATTTTCCTAATCTTTCTGTTCAAGCGCCATCTAC”: 0.465; “GATGATTGTTCTCCCAGCTGATGAATTGTGTCAGTCGAGTAAACAAATTTTCCTAATCTTTCTGTTCAAGCGCCATCTAC”: 1.22.
To “GATGATTGTTCTCCCAGCTGATGAATTTCAGTGTTCGAGTAAACAAATTTTCCTAATCTTTCTGTTCAAGCGCCATCTAC” belongs 0.747; to “GATGATTGTTCTCCCAGCTGATGAATTCTTCGAATCGAGTAAACAAATTTTCCTAATCTTTCTGTTCAAGCGCCATCTAC”, 0.202.
Consider “GATGATTGTTCTCCCAGCTGATGAATTGGAATGCTCGAGTAAACAAATTTTCCTAATCTTTCTGTTCAAGCGCCATCTAC”, for which the binding signal (RPM ratio (pull-down/input)) worked out at 0.721.
Next, “GATGATTGTTCTCCCAGCTGATGAATTAAATACATCGAGTAAACAAATTTTCCTAATCTTTCTGTTCAAGCGCCATCTAC”: 0.687; “GATGATTGTTCTCCCAGCTGATGAATTAAGGGTATCGAGTAAACAAATTTTCCTAATCTTTCTGTTCAAGCGCCATCTAC”: 0.641.
To “GATGATTGTTCTCCCAGCTGATGAATTAATAGCCTCGAGTAAACAAATTTTCCTAATCTTTCTGTTCAAGCGCCATCTAC” belongs 0.628.
Take “GATGATTGTTCTCCCAGCTGATGAATTGCACCATTCGAGTAAACAAATTTTCCTAATCTTTCTGTTCAAGCGCCATCTAC”: the binding signal (RPM ratio (pull-down/input)) was found to be 1.12.
Take “GATGATTGTTCTCCCAGCTGATGAATTTAGATTGTCGAGTAAACAAATTTTCCTAATCTTTCTGTTCAAGCGCCATCTAC”: the binding signal (RPM ratio (pull-down/input)) was 1.6.
To “GATGATTGTTCTCCCAGCTGATGAATTCTAATCCTCGAGTAAACAAATTTTCCTAATCTTTCTGTTCAAGCGCCATCTAC” belongs 0.317; to “GATGATTGTTCTCCCAGCTGATGAATTCCATATATCGAGTAAACAAATTTTCCTAATCTTTCTGTTCAAGCGCCATCTAC”, 0.64; to “GATGATTGTTCTCCCAGCTGATGAATTTAGTACCTCGAGTAAACAAATTTTCCTAATCTTTCTGTTCAAGCGCCATCTAC”, 0.966.
“GATGATTGTTCTCCCAGCTGATGAATTTGTCACATCGAGTAAACAAATTTTCCTAATCTTTCTGTTCAAGCGCCATCTAC”: the binding signal (RPM ratio (pull-down/input)) came to 3.14.
Next, “GATGATTGTTCTCCCAGCTGATGAATTTGACGAGTCGAGTAAACAAATTTTCCTAATCTTTCTGTTCAAGCGCCATCTAC”: 0.235; “GATGATTGTTCTCCCAGCTGATGAATTGTGATAATCGAGTAAACAAATTTTCCTAATCTTTCTGTTCAAGCGCCATCTAC”: 0.868; “GATGATTGTTCTCCCAGCTGATGAATTCCGTGACTCGAGTAAACAAATTTTCCTAATCTTTCTGTTCAAGCGCCATCTAC”: 0.812.
Consider “GATGATTGTTCTCCCAGCTGATGAATTTGATGACTCGAGTAAACAAATTTTCCTAATCTTTCTGTTCAAGCGCCATCTAC”, for which the binding signal (RPM ratio (pull-down/input)) came out at 3.97.
To “GATGATTGTTCTCCCAGCTGATGAATTCGGGAGCTCGAGTAAACAAATTTTCCTAATCTTTCTGTTCAAGCGCCATCTAC” belongs 0.201; to “GATGATTGTTCTCCCAGCTGATGAATTGCCCACCTCGAGTAAACAAATTTTCCTAATCTTTCTGTTCAAGCGCCATCTAC”, 0.45.
To “GATGATTGTTCTCCCAGCTGATGAATTACTAAGATCGAGTAAACAAATTTTCCTAATCTTTCTGTTCAAGCGCCATCTAC” belongs 0.254; to “GATGATTGTTCTCCCAGCTGATGAATTCTCTCCATCGAGTAAACAAATTTTCCTAATCTTTCTGTTCAAGCGCCATCTAC”, 0.223; to “GATGATTGTTCTCCCAGCTGATGAATTATCGGGATCGAGTAAACAAATTTTCCTAATCTTTCTGTTCAAGCGCCATCTAC”, 0.275.
For the sequence “GATGATTGTTCTCCCAGCTGATGAATTAAGTATCTCGAGTAAACAAATTTTCCTAATCTTTCTGTTCAAGCGCCATCTAC”, the binding signal (RPM ratio (pull-down/input)) is 4.17.
To “GATGATTGTTCTCCCAGCTGATGAATTCATTACTTCGAGTAAACAAATTTTCCTAATCTTTCTGTTCAAGCGCCATCTAC” belongs 0.462; to “GATGATTGTTCTCCCAGCTGATGAATTCTTGGTCTCGAGTAAACAAATTTTCCTAATCTTTCTGTTCAAGCGCCATCTAC”, 0.35.
As for “GATGATTGTTCTCCCAGCTGATGAATTATAATGTTCGAGTAAACAAATTTTCCTAATCTTTCTGTTCAAGCGCCATCTAC”, the binding signal (RPM ratio (pull-down/input)) was determined as 1.16.
Next, “GATGATTGTTCTCCCAGCTGATGAATTACGCACGTCGAGTAAACAAATTTTCCTAATCTTTCTGTTCAAGCGCCATCTAC”: 1.75.
